Out of some 310,000 compounds screened, about 14,000 (4.5%) showed an effect of 50% or more. Effects have a minus sign here. Some of the results follow.
Target: human ether-à-go-go-related gene (hERG) potassium channel (human, UniProt Q12809)
Assay: primary screen, population patch clamp on CHO cells stably expressing hERG
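Note: peak tail current of the secondary pulse compared with the same well before compound.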

Chain of human ether-à-go-go-related gene (hERG) potassium channel (Q12809 whole entry, looked up): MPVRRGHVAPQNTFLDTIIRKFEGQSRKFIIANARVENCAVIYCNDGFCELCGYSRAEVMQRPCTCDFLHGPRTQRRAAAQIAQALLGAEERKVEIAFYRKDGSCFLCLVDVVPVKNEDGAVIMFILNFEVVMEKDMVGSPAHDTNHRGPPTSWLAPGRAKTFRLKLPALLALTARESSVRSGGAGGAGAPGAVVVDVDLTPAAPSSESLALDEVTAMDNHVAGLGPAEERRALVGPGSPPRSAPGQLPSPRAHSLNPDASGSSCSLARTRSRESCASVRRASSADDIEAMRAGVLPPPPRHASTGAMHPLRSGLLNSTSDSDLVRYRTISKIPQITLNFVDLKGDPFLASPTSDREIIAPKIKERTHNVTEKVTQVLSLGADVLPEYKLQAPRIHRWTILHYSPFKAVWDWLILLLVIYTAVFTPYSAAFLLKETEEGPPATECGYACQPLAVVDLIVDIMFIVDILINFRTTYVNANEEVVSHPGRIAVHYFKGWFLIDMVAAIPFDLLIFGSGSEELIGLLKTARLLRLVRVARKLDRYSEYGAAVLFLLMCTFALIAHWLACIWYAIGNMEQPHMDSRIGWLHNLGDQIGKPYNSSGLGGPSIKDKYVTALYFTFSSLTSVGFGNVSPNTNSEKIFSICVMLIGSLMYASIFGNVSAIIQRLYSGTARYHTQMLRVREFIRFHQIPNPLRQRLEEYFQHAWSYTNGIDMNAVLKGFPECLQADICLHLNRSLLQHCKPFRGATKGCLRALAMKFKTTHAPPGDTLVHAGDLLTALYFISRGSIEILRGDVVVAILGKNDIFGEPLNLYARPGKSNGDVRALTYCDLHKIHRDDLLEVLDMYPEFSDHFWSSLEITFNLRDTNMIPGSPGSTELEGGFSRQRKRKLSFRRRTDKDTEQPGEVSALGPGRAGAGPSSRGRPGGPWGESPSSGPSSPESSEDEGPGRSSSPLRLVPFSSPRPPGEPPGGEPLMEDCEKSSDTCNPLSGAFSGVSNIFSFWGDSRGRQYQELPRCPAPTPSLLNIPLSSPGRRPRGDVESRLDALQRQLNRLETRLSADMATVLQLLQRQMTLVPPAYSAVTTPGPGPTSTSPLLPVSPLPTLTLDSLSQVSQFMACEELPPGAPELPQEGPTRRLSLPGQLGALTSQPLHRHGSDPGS

| SMILES | hERG current change (%, negative = inhibition) at 10uM [%] |
| --- | --- |
| CC(NC(=O)Cn1nc(-c2ccccc2)ccc1=O)c1ccccc1 (stereo not shown) | -13.4 |
| O=C(N/N=C/c1ccc2c(c1)OCO2)c1ccccn1 | 5.36 |
| COC(=O)CNC(=O)C1Nc2ccccc2C2C=CCC12 (stereo not shown) | 3.38 |
| NS(=O)(=O)c1ccc(Nc2nc(-c3ccc(O)cc3)cs2)cc1 | 7.56 |
| CCC(=O)n1nc(NCc2ccc(OC)c(OC)c2)nc1NCc1ccc(OC)c(OC)c1 | 2.76 |
| O=C(Nc1ccc(Cl)c(-c2nc3ccccc3[nH]2)c1)c1ccc2c(c1)OCO2 | -15 |
| Cc1[nH]nc2ncc(C(=O)c3cc(F)ccc3O)cc12 | -7.26 |
| Nc1nonc1-n1nnc(C(=O)N/N=C/c2c(Cl)cccc2Cl)c1CN1CCOCC1 | 29.7 |
| COc1ccc(Cl)cc1NC(=O)C1Cc2cc(S(=O)(=O)N3CCCC3)ccc2N1C(C)=O (stereo not shown) | -10.3 |
| CCOC(=O)/C=C1\SCC(=O)N1CC(=O)Nc1ccccc1OC(F)F | 18.8 |
| NC(=O)c1cccc2ccccc12 | 1.94 |
| CC(C)(C)c1cc(Cl)ccc1OCCn1ccnc1.O=C(O)C(=O)O | -5.05 |
| COc1ccccc1CCNC(=O)CCn1c(=O)oc2ccccc21 | 8.54 |
| COc1cc(Cl)c(C)cc1NC(=O)CSc1cc(Cl)ccc1Cl | 7.31 |
| CC(=O)c1c(C)nc(Nc2nc3ccccc3s2)nc1C | 4.5 |
| Cc1cc(O)cc(O)c1C(=O)Cc1cnn(-c2ccccc2)c1 | -0.738 |
| Cc1cccc(N2CCN(S(=O)(=O)c3ccc4c(c3)NC(=O)CS4)CC2)c1C | 14.5 |
| COc1cc(-c2ccc3oc(-c4ccsc4)cc3c2)cc(OC)c1OC | 15.3 |
| Cc1[nH][nH]c(=O)c1N=Nc1ccc(F)cc1 | 10.5 |
| O=S(=O)(c1ccc2ccccc2c1)N1CCCCCC1 | -1.76 |
| CCCCCCNC(=O)N[C@@H](Cc1ccc(O)cc1)C(=O)NCCC[C@H]1CN2C(=NC[C@H]2C)N1CC1CCC1 | 2.98 |
| CCOc1ccc(CCNC(=O)COC(=O)/C=C/c2ccccc2)cc1OCC | 2.02 |

| SMILES | hERG current change (%, negative = inhibition) at 10uM [%] |
| --- | --- |
| Cc1cc(C)n2c(SCC(=O)NC3CCCCC3)nnc2n1 | 31.1 |
| CCOc1ccc(CCNS(=O)(=O)c2ccc3c(c2)oc(=O)n3C)cc1OCC | 1.53 |
| COc1ccc(N2CCN(Cc3nc4c(c(=O)[nH]c(=O)n4C)n3Cc3cccc(Cl)c3)CC2)cc1 | -16.5 |
| Cc1cc(C(C)(C)C)n2nc(C)c(-c3ccccc3)c2n1 | 13.9 |
| O=C(CNC(=O)c1ccc(Br)o1)Nc1cccc(-c2cnc3ccccc3n2)c1 | -0.706 |
| Cc1c(C(=O)N/N=C/c2ccoc2)cccc1[N+](=O)[O-] | 9.67 |
| CC(=O)c1cccc(-n2c(CCC(=O)O)ccc2-c2ccc(C)cc2)c1 | 10.1 |
| CN(C)C=Nc1nonc1-c1ccccc1 | -1.32 |
| COc1cc(CCC(=O)OCC(=O)Nc2ccc(C)cc2Br)cc(OC)c1OC | 10.2 |
| O=C(O)CC1OCC=C2CN3CCC45C6=CC(=O)C(=O)C([N+](=O)[O-])=C6NC4C1C2CC35 (stereo not shown) | 10.1 |
| Fc1ccc(N2CCN(C3=Nc4cccc5cccc3c45)CC2)cc1 | -77 |
| COc1ccc(-c2csc(Nc3ccccc3)[n+]2Cc2ccccc2)cc1.[Br-] | 27.6 |
| O=[N+]([O-])c1cccc(S(=O)(=O)N2CCCCC2c2cccnc2)c1 (stereo not shown) | -20 |
| Cc1ccc(C(=O)O)cc1NC(=S)NCCc1ccccc1 | 0.261 |
| CCCCCCCCOC1OC(CO)C(O)C(O)C1NC(C)=O (stereo not shown) | 4.74 |
| CCOc1ccc(-n2nnnc2SCC(=O)c2ccccc2)cc1 | -2.66 |
| CCOC(=O)N1CCN(CCC(=O)c2ccc(Cl)cc2)CC1.Cl | -40.9 |
| COc1ccccc1CN1C(=NC(=O)C2CCCCC2)SC2CS(=O)(=O)CC21 (stereo not shown) | 19.1 |
| COc1ccc(CCNC(=O)CSc2nncs2)cc1 | 6.79 |
| CCOc1ccc(CCNC(=O)CCC(=O)N2CCOc3ccccc32)cc1OCC | -7.82 |
| COc1ccc(CCNC(=O)CSc2nc(-c3ccco3)cc(C(F)(F)F)n2)cc1OC | -15.8 |

— paper PMC4336329 (PLoS ONE, 2015)
